# Measured values as given in article PMC4336329 (PLoS ONE, 2015).
# The whole screen tested about 310,000 compounds, of which about 2,200 (0.71%) showed an effect of 50% or more. The effect is printed as a negative number. The list shows a part of the results.
# Biological target: human ether-à-go-go-related gene (hERG) potassium channel (human, UniProt Q12809)
# Test: primary screen, population patch clamp on CHO cells stably expressing hERG
# Sequence of human ether-à-go-go-related gene (hERG) potassium channel (Q12809 whole entry, looked up): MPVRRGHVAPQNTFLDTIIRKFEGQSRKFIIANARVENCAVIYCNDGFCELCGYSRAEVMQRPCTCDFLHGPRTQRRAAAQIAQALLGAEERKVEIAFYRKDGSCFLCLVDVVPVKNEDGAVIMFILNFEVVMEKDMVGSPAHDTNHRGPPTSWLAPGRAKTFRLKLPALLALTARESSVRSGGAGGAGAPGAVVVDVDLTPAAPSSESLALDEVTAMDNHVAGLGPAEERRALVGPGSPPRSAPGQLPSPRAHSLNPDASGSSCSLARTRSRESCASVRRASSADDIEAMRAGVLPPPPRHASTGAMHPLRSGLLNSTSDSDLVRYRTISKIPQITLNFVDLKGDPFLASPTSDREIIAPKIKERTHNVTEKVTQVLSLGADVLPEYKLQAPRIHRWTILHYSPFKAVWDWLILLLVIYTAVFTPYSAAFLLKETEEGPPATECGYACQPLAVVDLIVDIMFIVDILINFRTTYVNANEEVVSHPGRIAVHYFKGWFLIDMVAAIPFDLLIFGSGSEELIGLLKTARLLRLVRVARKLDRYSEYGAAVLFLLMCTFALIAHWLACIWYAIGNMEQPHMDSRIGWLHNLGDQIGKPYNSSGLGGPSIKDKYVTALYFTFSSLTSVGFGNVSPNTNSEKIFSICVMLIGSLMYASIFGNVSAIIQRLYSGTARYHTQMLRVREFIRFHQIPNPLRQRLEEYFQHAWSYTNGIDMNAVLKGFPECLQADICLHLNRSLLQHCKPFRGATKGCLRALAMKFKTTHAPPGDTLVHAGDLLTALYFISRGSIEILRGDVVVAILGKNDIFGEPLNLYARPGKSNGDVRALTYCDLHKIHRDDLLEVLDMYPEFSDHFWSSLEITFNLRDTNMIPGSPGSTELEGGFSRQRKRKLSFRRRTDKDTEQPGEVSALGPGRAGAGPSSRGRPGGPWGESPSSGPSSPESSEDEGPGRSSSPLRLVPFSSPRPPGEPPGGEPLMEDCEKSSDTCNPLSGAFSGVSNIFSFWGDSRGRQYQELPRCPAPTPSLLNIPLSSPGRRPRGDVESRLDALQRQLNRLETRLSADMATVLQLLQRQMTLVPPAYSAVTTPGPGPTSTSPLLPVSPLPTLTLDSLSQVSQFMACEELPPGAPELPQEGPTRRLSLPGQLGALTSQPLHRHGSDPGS
row,SMILES,"hERG current change (%, negative = inhibition) at 1uM"
1,Cc1cc(C)cc(N(CC(=O)NC2CCCCC2)C(=O)CNC(=O)c2ccco2)c1,5.75%
2,CC(C)(c1ccccc1)c1ccc(OCCN2CCCC2)cc1,12.5%
3,O=C(CSc1nnc(CNC(=O)c2ccc(F)cc2)o1)NCc1ccccc1Cl,6.48%
4,O=[N+]([O-])c1cnccc1Nc1cccc(F)c1,4.22%
5,CC(C)NC(=O)C1CCN(C2CCN(C(=O)/C=C/c3cccs3)CC2)CC1,0.466%
6,COc1cc(C(=O)NCC(c2ccccc2)N(C)C)ccc1OCC(=O)N1CCOCC1 (stereo not drawn),12.1%
7,NN1C(=O)NC(c2ccccc2)(c2ccccc2)C1=O,8.48%
8,COc1cccc(C2CC(c3cccs3)=NN2C(=O)CCC(=O)O)c1OC (stereo not drawn),11.3%
9,COc1ccc(C2N(C(C)=O)CCCN2S(=O)(=O)c2ccc(C)cc2)cc1 (stereo not drawn),-6.08%
10,CCn1c(SCC(=O)c2ccc(O)c(O)c2)nnc1-c1ccc(C)cc1,-2.88%
11,CCN(c1ccccc1)S(=O)(=O)c1ccc(NC(=O)C(C)(C)C)cc1,2.29%
12,Cc1nn(-c2cccc(Cl)c2)c2c1C(c1cccnc1)C(C#N)=C(N)O2 (stereo not drawn),16.8%
13,O=C(CCCc1c[nH]c2ccccc12)NCc1ccc2c(c1)OCO2,3.51%
14,COc1ccccc1N1CCN(C(=O)C2CCN(S(=O)(=O)c3ccc(F)cc3)CC2)CC1,-0.279%
15,O=C(CNC(=O)c1ccccc1)OCCCOC(=O)CNC(=O)c1ccccc1,9.3%
16,NS(=O)(=O)c1ccc(NC(=O)C(=O)NCCC(=O)O)cc1,-13.4%
17,O=C(CN(c1ccccc1)S(=O)(=O)c1ccccc1)Nc1ccc(F)cc1,17%
18,O=C(CNC(=O)c1cccs1)NCC(=O)OCc1ccc(Cl)cc1Cl,-1.41%
19,Cc1c(C(=O)N2CCN(c3ccccn3)CC2)cccc1[N+](=O)[O-],4.41%
20,COC(=O)Nc1ccc(S(=O)(=O)N2CCCCC2C(=O)O)cc1 (stereo not drawn),17.2%
21,Cc1ccc(NC(=O)C2CC(=O)Nc3ncnn32)c(C)c1 (stereo not drawn),-5.16%
22,Cc1cc(Br)ccc1SCC(=O)Nc1cccnc1,11.8%
23,CCC1CN(C(=O)Nc2cccc(C)c2)c2cc(C)ccc2O1 (stereo not drawn),0.0513%

row,SMILES,"hERG current change (%, negative = inhibition) at 1uM"
1,Cn1c(=O)c2c(ncn2CCC(=O)N/N=C/c2cccnc2)n(C)c1=O,14.2%
2,Cc1ccc(-n2c(-c3ccco3)nc3nc4ccccc4nc32)cc1,-9.46%
3,CCCn1nc(NC(=O)C(C)C)c2cc3cc(OC)ccc3nc21,9.61%
4,CCOc1ccc(NC(=O)CSc2nccn2C)cc1,3.49%
5,O=C(NCCF)C1Nc2ccc(OC(F)(F)F)cc2C2C=CCC12 (stereo not drawn),5.8%
6,Cc1ccc(C)c(-c2csc(N/N=C/c3ccco3)n2)c1,17.1%
7,COc1ccc(NC2CCCN(C(=O)C3(C)CCCCC3)C2)cc1 (stereo not drawn),12.8%
8,N#CC(c1nc2ccccc2nc1N1CCCC1)S(=O)(=O)c1ccccc1 (stereo not drawn),5.15%
9,Cc1cc(CNC(=O)COc2ccc(C#N)cc2)c2ccccc2n1,-21.7%
10,CC(C)(C)c1cc[n+](-c2[nH]c(=O)sc2/C=N/N=C(\[O-])c2cccnc2)cc1,19.9%
11,Oc1ccc(N2CCN(c3ncnc4sc5c(c34)CCC5)CC2)cc1,9.37%
12,Cc1ccc(OCCn2cnc3c(N)ncnc32)cc1,-5.58%
13,CC1(C)CC2(CC(c3ccccc3)Oc3cc(O)ccc32)NC(=O)N1 (stereo not drawn),10.8%
14,OCCCc1cn(CC2CCCCC2)nn1,5.63%
15,COCCCN1C(=O)C(O)=C(C(=O)c2ccco2)C1c1ccccc1 (stereo not drawn),19.1%
16,Cc1cc(S(=O)(=O)Nc2c(C)nn(C)c2C)c(Cl)cc1Cl,14.5%
17,CSCCC(Nc1nc2ccccc2s1)C(=O)O (stereo not drawn),1.87%
18,C/C(=N/NC(=O)CN(c1ccccc1)S(=O)(=O)c1ccccc1)c1ccccc1O,11.9%
19,COc1ccccc1NC(=O)CCN1C(=O)/C(=C\c2cc(OC)c(OC)c(OC)c2)SC1=S,14%
20,COc1ccc(Cc2nc3ccc(C(=O)NC(C)Cc4ncccc4C)cc3o2)cc1OC (stereo not drawn),10.2%
21,O=C(NCc1ccncc1)NC1CCCCC1,15.1%
22,Cc1c(NC(=O)C(C)Sc2ccc3ccccc3n2)c(=O)n(-c2ccccc2)n1C (stereo not drawn),5.02%
